The values that follow come from the supplement of paper PMC10369915.

Some of the results follow. No stated cut-off is given here; in the data, active = 3.2 or more and inactive = the rest. Only a few entries rise above the background.
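Further: displayed peptides selected on beads carrying the immobilized SH2 domain, with library peptides lacking any tyrosine serving as negative controls.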

One assay concerns the target SHP2 C-SH2 domain E139D. As to the kind of experiment: enrichment score (SH2-bound / input frequency) (ratio); bacterial display of known human phosphotyrosine sites (pTyr-Var adds point mutants) read by sequencing; higher = stronger binding; tyrosines were phosphorylated by kinases first. The settings on record: peptide library: pTyr-Var.
For MTYMFYRENLR [NLRP14_Y443_V441M], the enrichment score was inactive: 1.67.

For the molecule TSESSYFKSLN [NGEF_Y288_A286S_YF], the enrichment score was inactive: 0.598.

For DFLEKYFKFGS [NNMT_Y24_YF], the enrichment score was inactive: 2.28.

As for CNSFRYGGGGG [NPPA_Y151], the enrichment score was inactive: 0.669.

METKGYHSLPE [NR3C2_Y6]: the enrichment score was inactive: 0.588.

For the molecule SHPSSYTTHPQ [NIPBL_Y195], the enrichment score is inactive: 0.633.

In the case of FSPGSNERETF [NF1_Y2192_Y2192N], the enrichment score is inactive: 0.647.

Consider AQQPIYIRVEG [NLRP7_Y318_V319I], for which the enrichment score was inactive: 1.03.

Turning to ISPPVYLTNEW [NRK_Y885], the enrichment score was inactive: 1.33.

In the case of GRDVIYKGFED [NFU1_Y194_G190R], the enrichment score is inactive: 0.686.

As to ERDTVYSSSGV [NELL2_Y350_N347D], the enrichment score was inactive: 0.485.

On to LVVFEYMRHGD [NTRK1_Y591_M587V], for which the enrichment score was inactive: 2.58.

Turning to TSYSGYRCHRH [NKAPL_Y94_Y96C], the enrichment score is inactive: 1.18.

FSTDCYRVGGH [NTRK2_Y707_Y706C_YF]: the enrichment score is inactive: 0.898.

Regarding PVKSEYSSIKL [NPC2_Y119_P120S], the enrichment score was inactive: 1.13.

On to QLHEHCKIHKE [NSMAF_Y626_Y626C], for which the enrichment score was inactive: 3.08.

In the case of RSDSSYRMSAT [NHS_Y1532], the enrichment score is inactive: 0.594.

Regarding VSGIPYSQPKQ [NEU1_Y251_G252S], the enrichment score is inactive: 0.477.

Another assay deals with SHP2 C-SH2 domain wild-type. The description is as above. The settings on record: peptide library: pTyr-Var.
Take MTYMFYRENLR [NLRP14_Y443_V441M]: the enrichment score was inactive: 1.13.

For TSESSYFKSLN [NGEF_Y288_A286S_YF], the enrichment score is inactive: 0.538.

For DFLEKYFKFGS [NNMT_Y24_YF], the enrichment score is inactive: 1.54.

Consider CNSFRYGGGGG [NPPA_Y151], for which the enrichment score was inactive: 0.747.

In the case of METKGYHSLPE [NR3C2_Y6], the enrichment score is inactive: 0.652.

On to SHPSSYTTHPQ [NIPBL_Y195], for which the enrichment score is inactive: 0.449.

Take FSPGSNERETF [NF1_Y2192_Y2192N]: the enrichment score was inactive: 0.617.

AQQPIYIRVEG [NLRP7_Y318_V319I]: the enrichment score was inactive: 0.969.

For ISPPVYLTNEW [NRK_Y885], the enrichment score was inactive: 0.954.

With GRDVIYKGFED [NFU1_Y194_G190R], the enrichment score is inactive: 0.67.

Consider ERDTVYSSSGV [NELL2_Y350_N347D], for which the enrichment score is inactive: 0.567.

Take LVVFEYMRHGD [NTRK1_Y591_M587V]: the enrichment score is inactive: 2.06.

For the molecule TSYSGYRCHRH [NKAPL_Y94_Y96C], the enrichment score was inactive: 0.987.

For FSTDCYRVGGH [NTRK2_Y707_Y706C_YF], the enrichment score is inactive: 0.903.

Consider PVKSEYSSIKL [NPC2_Y119_P120S], for which the enrichment score is inactive: 2.71.

Consider QLHEHCKIHKE [NSMAF_Y626_Y626C], for which the enrichment score is inactive: 2.31.

Consider RSDSSYRMSAT [NHS_Y1532], for which the enrichment score is inactive: 0.491.

As to VSGIPYSQPKQ [NEU1_Y251_G252S], the enrichment score is inactive: 0.596.

The target in a further assay is SHP2 N-SH2 domain L43F. Described as above. The settings on record: peptide library: pTyr-Var.
With MTYMFYRENLR [NLRP14_Y443_V441M], the enrichment score is inactive: 1.37.

Take TSESSYFKSLN [NGEF_Y288_A286S_YF]: the enrichment score is inactive: 0.596.

For the molecule DFLEKYFKFGS [NNMT_Y24_YF], the enrichment score is inactive: 1.54.

Turning to CNSFRYGGGGG [NPPA_Y151], the enrichment score was inactive: 0.81.

Regarding METKGYHSLPE [NR3C2_Y6], the enrichment score is inactive: 0.727.

On to SHPSSYTTHPQ [NIPBL_Y195], for which the enrichment score was inactive: 0.399.

On to FSPGSNERETF [NF1_Y2192_Y2192N], for which the enrichment score was inactive: 0.566.

For AQQPIYIRVEG [NLRP7_Y318_V319I], the enrichment score was inactive: 1.14.

On to ISPPVYLTNEW [NRK_Y885], for which the enrichment score is inactive: 1.29.

Turning to GRDVIYKGFED [NFU1_Y194_G190R], the enrichment score is inactive: 0.601.

For ERDTVYSSSGV [NELL2_Y350_N347D], the enrichment score was inactive: 0.481.

For LVVFEYMRHGD [NTRK1_Y591_M587V], the enrichment score was inactive: 2.52.

For the molecule TSYSGYRCHRH [NKAPL_Y94_Y96C], the enrichment score is inactive: 0.913.

Turning to FSTDCYRVGGH [NTRK2_Y707_Y706C_YF], the enrichment score is inactive: 0.903.

In the case of PVKSEYSSIKL [NPC2_Y119_P120S], the enrichment score was inactive: 0.904.

For the molecule QLHEHCKIHKE [NSMAF_Y626_Y626C], the enrichment score is inactive: 2.84.

With RSDSSYRMSAT [NHS_Y1532], the enrichment score was inactive: 0.532.

For VSGIPYSQPKQ [NEU1_Y251_G252S], the enrichment score was inactive: 0.61.

For another assay, the target named is SHP2 N-SH2 domain T42A. Described as above. The settings on record: peptide library: pTyr-Var.
For MTYMFYRENLR [NLRP14_Y443_V441M], the enrichment score was inactive: 1.32.

Consider TSESSYFKSLN [NGEF_Y288_A286S_YF], for which the enrichment score was inactive: 0.631.

As to DFLEKYFKFGS [NNMT_Y24_YF], the enrichment score was inactive: 1.47.

For the molecule CNSFRYGGGGG [NPPA_Y151], the enrichment score was inactive: 0.685.

As to METKGYHSLPE [NR3C2_Y6], the enrichment score is inactive: 0.563.

Consider SHPSSYTTHPQ [NIPBL_Y195], for which the enrichment score was inactive: 0.451.

Turning to FSPGSNERETF [NF1_Y2192_Y2192N], the enrichment score was inactive: 0.547.

As to AQQPIYIRVEG [NLRP7_Y318_V319I], the enrichment score is inactive: 1.48.

With ISPPVYLTNEW [NRK_Y885], the enrichment score was inactive: 1.32.

Consider GRDVIYKGFED [NFU1_Y194_G190R], for which the enrichment score was inactive: 0.621.

For ERDTVYSSSGV [NELL2_Y350_N347D], the enrichment score was inactive: 0.518.

On to LVVFEYMRHGD [NTRK1_Y591_M587V], for which the enrichment score was inactive: 2.86.

With TSYSGYRCHRH [NKAPL_Y94_Y96C], the enrichment score was inactive: 0.905.

Turning to FSTDCYRVGGH [NTRK2_Y707_Y706C_YF], the enrichment score is inactive: 0.69.

As for PVKSEYSSIKL [NPC2_Y119_P120S], the enrichment score is inactive: 1.2.

Consider QLHEHCKIHKE [NSMAF_Y626_Y626C], for which the enrichment score is inactive: 2.65.

For the molecule RSDSSYRMSAT [NHS_Y1532], the enrichment score is inactive: 0.443.

In the case of VSGIPYSQPKQ [NEU1_Y251_G252S], the enrichment score was inactive: 0.69.

The next assay deals with SHP2 N-SH2 domain T52S. The description is as above. The settings on record: peptide library: pTyr-Var.
Consider MTYMFYRENLR [NLRP14_Y443_V441M], for which the enrichment score was inactive: 1.46.

As to TSESSYFKSLN [NGEF_Y288_A286S_YF], the enrichment score is inactive: 0.534.

For DFLEKYFKFGS [NNMT_Y24_YF], the enrichment score was inactive: 2.27.

Consider CNSFRYGGGGG [NPPA_Y151], for which the enrichment score is inactive: 0.801.

Take METKGYHSLPE [NR3C2_Y6]: the enrichment score is inactive: 0.627.

Regarding SHPSSYTTHPQ [NIPBL_Y195], the enrichment score is inactive: 0.533.

For FSPGSNERETF [NF1_Y2192_Y2192N], the enrichment score was inactive: 0.569.

AQQPIYIRVEG [NLRP7_Y318_V319I]: the enrichment score is inactive: 1.12.

Take ISPPVYLTNEW [NRK_Y885]: the enrichment score is inactive: 1.19.

GRDVIYKGFED [NFU1_Y194_G190R]: the enrichment score is inactive: 0.758.

As to ERDTVYSSSGV [NELL2_Y350_N347D], the enrichment score is inactive: 0.586.

In the case of LVVFEYMRHGD [NTRK1_Y591_M587V], the enrichment score is inactive: 2.66.

In the case of TSYSGYRCHRH [NKAPL_Y94_Y96C], the enrichment score was inactive: 1.15.

For FSTDCYRVGGH [NTRK2_Y707_Y706C_YF], the enrichment score is inactive: 0.905.

For the molecule PVKSEYSSIKL [NPC2_Y119_P120S], the enrichment score was inactive: 1.01.

As for QLHEHCKIHKE [NSMAF_Y626_Y626C], the enrichment score is inactive: 2.84.

Regarding RSDSSYRMSAT [NHS_Y1532], the enrichment score is inactive: 0.517.

On to VSGIPYSQPKQ [NEU1_Y251_G252S], for which the enrichment score was inactive: 0.569.

A further assay deals with SHP2 N-SH2 domain wild-type. Described as above. The settings on record: peptide library: pTyr-Var.
On to MTYMFYRENLR [NLRP14_Y443_V441M], for which the enrichment score is inactive: 1.39.

In the case of TSESSYFKSLN [NGEF_Y288_A286S_YF], the enrichment score is inactive: 0.59.

For DFLEKYFKFGS [NNMT_Y24_YF], the enrichment score is inactive: 1.94.

With CNSFRYGGGGG [NPPA_Y151], the enrichment score was inactive: 0.806.

Take METKGYHSLPE [NR3C2_Y6]: the enrichment score is inactive: 0.814.

Consider SHPSSYTTHPQ [NIPBL_Y195], for which the enrichment score was inactive: 0.569.

Turning to FSPGSNERETF [NF1_Y2192_Y2192N], the enrichment score was inactive: 0.569.

Regarding AQQPIYIRVEG [NLRP7_Y318_V319I], the enrichment score was inactive: 1.07.

ISPPVYLTNEW [NRK_Y885]: the enrichment score is inactive: 1.15.

On to GRDVIYKGFED [NFU1_Y194_G190R], for which the enrichment score is inactive: 0.792.

In the case of ERDTVYSSSGV [NELL2_Y350_N347D], the enrichment score was inactive: 0.547.

Turning to LVVFEYMRHGD [NTRK1_Y591_M587V], the enrichment score was inactive: 1.93.

Regarding TSYSGYRCHRH [NKAPL_Y94_Y96C], the enrichment score was inactive: 0.804.

Take FSTDCYRVGGH [NTRK2_Y707_Y706C_YF]: the enrichment score is inactive: 0.869.

For the molecule PVKSEYSSIKL [NPC2_Y119_P120S], the enrichment score was inactive: 0.86.

With QLHEHCKIHKE [NSMAF_Y626_Y626C], the enrichment score is inactive: 2.46.

Turning to RSDSSYRMSAT [NHS_Y1532], the enrichment score is inactive: 0.556.

As for VSGIPYSQPKQ [NEU1_Y251_G252S], the enrichment score is inactive: 0.89.
